{"source": "the supplement of paper PMC6135742", "note": "Values joined by “and” are separate entries in the source; they are usually repeats but may differ in a detail not shown here. Equal values may be shown once. Where a name gives a salt, the structure may show the parent alone. ± gives the standard deviation of the averaged measurements. Over roughly 2,600 compounds, “total cell number (DAPI+ nuclei) relative to DMSO vehicle control” has its median near -1.4; the lowest 2% begin near -23. The list shows a part of the results.", "data": [{"system": "jimpy (Plp1 jimpy) mouse iPSC-derived oligodendrocyte progenitor cells", "assay": "total cell number (DAPI+ nuclei) relative to DMSO vehicle control (SDs above negative control mean); higher = more surviving cells", "settings": "10 µM; 3 days", "values": [{"smiles": "Cc1nc(N=Nc2ccc(S(=O)(=O)O)cc2S(=O)(=O)O)c(COP(=O)(O)O)c(C=O)c1O", "total cell number": -1.17}, {"smiles": "Cc1ccc(O)c([C@H](CCN(C(C)C)C(C)C)c2ccccc2)c1", "note": "[Tolterodine tartrate]", "total cell number": -3.77}, {"smiles": "C=CCc1ccccc1OCC(O)CNC(C)C", "note": "(stereo unspecified) [Alprenolol hydrochloride]", "total cell number": -7.1}, {"smiles": "NC[C@H]1CC[C@H](C(=O)O)CC1", "note": "[Tranexamic Acid]", "total cell number": 2.46}, {"smiles": "CCCCOc1ccc(CC(=O)NO)cc1", "note": "[Bufexamac]", "total cell number": -0.0933}, {"smiles": "CC(=O)OC(C)C[N+](C)(C)C", "note": "(stereo not drawn) [Acetyl-beta-methylcholine chloride]", "total cell number": -0.0482}, {"smiles": "CCCCCCCCCCCCCCCCO", "note": "[1-Hexadecanol]", "total cell number": -0.446}, {"smiles": "CCN1/C(=C/C(C)=O)Sc2ccc(OC)cc21", "total cell number": "-4.99 ± 1.3"}, {"smiles": "CN(C)C(=O)N=NC(=O)N(C)C", "note": "[N,N,N',N'-Tetramethylazodicarboxamide]", "total cell number": -1.91}, {"smiles": "CCN1CCCC1CNC(=O)c1cc(S(N)(=O)=O)ccc1OC", "note": "(racemic) [(±)-Sulpiride]", "total cell number": 0.388}, {"smiles": "CCOC(=O)c1ccc(C#Cc2ccc3c(c2)C(C)(C)CCS3)nc1", "note": "[Tazarotene]", "total cell number": "-3.46 ± 0.47"}, {"smiles": "CC(C)N(CCC(=O)c1ccc2ccccc2c1)Cc1ccccc1", "total cell number": "-3.25 and -5.72"}, {"smiles": "CC(C)(C)C#Cc1cc(N(C(=O)[C@H]2CC[C@H](C)CC2)[C@H]2CC[C@H](O)CC2)c(C(=O)O)s1", "note": "[VX-222 (VCH-222, Lomibuvir)]", "total cell number": -0.556}, {"smiles": "CCC(C)(C)c1ccc(CC(C)CN2C[C@@H](C)O[C@@H](C)C2)cc1", "note": "(stereo partly specified) [Amorolfine HCl]", "total cell number": 5.81}, {"smiles": "COc1ccc(CCN(C)CCCC(C#N)(c2ccc(OC)c(OC)c2)C(C)C)cc1OC", "note": "(racemic) [(±)-Verapamil hydrochloride]", "total cell number": -3.87}, {"smiles": "COc1ccc(CCN(C)CCCC(C#N)(c2ccc(OC)c(OC)c2)C(C)C)cc1OC", "note": "(racemic) [Verapamil HCl]", "total cell number": -5.69}, {"smiles": "Cn1c(=O)c(F)c(Nc2ccc(I)cc2F)c2c(=O)n(C[C@@H](O)CO)cnc21", "total cell number": -10.4}, {"smiles": "COc1ccc(-c2cc3c(C)nc(N)nc3n([C@H]3CC[C@H](OCCO)CC3)c2=O)cn1", "total cell number": -11.2}, {"smiles": "CCOc1nc2cccc(C(=O)OC(C)OC(=O)OC3CCCCC3)c2n1Cc1ccc(-c2ccccc2-c2nn[nH]n2)cc1", "note": "(stereo unspecified) [Candesartan cilexetil]", "total cell number": -1.21}, {"smiles": "CCOc1nc2cccc(C(=O)OC(C)OC(=O)OC3CCCCC3)c2n1Cc1ccc(-c2ccccc2-c2nn[nH]n2)cc1", "note": "(stereo unspecified) [Candesartan Cilexetil]", "total cell number": -0.473}, {"smiles": "CCCCNc1ncc(-c2ccc(CN3CCOCC3)cn2)c(NC2CCC(O)CC2)n1", "note": "(stereo unspecified)", "total cell number": -8.26}, {"smiles": "COc1ccc(-c2oc3c(CC=C(C)C)c(O)cc(O)c3c(=O)c2O)cc1", "note": "[Icaritin]", "total cell number": -7.97}, {"smiles": "CCN1CCC[C@H]1CNC(=O)c1cc(S(N)(=O)=O)ccc1OC", "note": "[Levosulpiride]", "total cell number": 1.95}, {"smiles": "Nc1ccc(S(N)(=O)=O)cc1", "note": "[Sulfanilamide]", "total cell number": -3.15}, {"smiles": "O=c1cc(O)cc(/C=C/c2ccc(O)c(O)c2)o1", "note": "[Hispidin]", "total cell number": -3.24}, {"smiles": "CC(CCc1ccc(O)cc1)NCCc1ccc(O)c(O)c1", "note": "(stereo unspecified) [Dobutamine hydrochloride]", "total cell number": -4.67}, {"smiles": "CCCNS(=O)(=O)Nc1ncnc(OCCOc2ncc(Br)cn2)c1-c1ccc(Br)cc1", "note": "[Macitentan]", "total cell number": -0.584}, {"smiles": "N[C@@H](CCC(=O)N[C@@H](CSN=O)C(=O)NCC(=O)O)C(=O)O", "note": "[S-Nitrosoglutathione]", "total cell number": -1.44}, {"smiles": "N#CC(=C(/N)Sc1ccccc1N)/C(C#N)=C(\\N)Sc1ccccc1N", "total cell number": -6.49}, {"smiles": "N#CC(=C(/N)Sc1ccccc1N)/C(C#N)=C(\\N)Sc1ccccc1N", "note": "[U0126 monoethanolate]", "total cell number": -5.49}, {"smiles": "Cc1[nH]c(/C=C2\\C(=O)Nc3ccc(S(=O)(=O)Cc4c(Cl)cccc4Cl)cc32)c(C)c1C(=O)N1CCC[C@@H]1CN1CCCC1", "total cell number": -27.2}, {"smiles": "COc1ccc(CNCc2cccc3ccccc23)cc1", "total cell number": -0.778}, {"smiles": "NC(=O)[C@@H](CCC(F)(F)F)N(Cc1ccc(-c2ncon2)cc1F)S(=O)(=O)c1ccc(Cl)cc1", "total cell number": -7.03}, {"smiles": "C=CCN1CCCC1CNC(=O)c1cc2nn[nH]c2cc1OC", "note": "(stereo unspecified) [Alizapride HCl]", "total cell number": 1.9}, {"smiles": "CC(C)c1onc(-c2c(Cl)cccc2Cl)c1COc1ccc(/C=C/c2cccc(C(=O)O)c2)c(Cl)c1", "total cell number": -1.86}, {"smiles": "Nc1nc(Nc2ccc(S(N)(=O)=O)cc2)nn1C(=O)c1c(F)cccc1F", "total cell number": -21.7}, {"smiles": "CC(C)[C@H](NC(=O)c1ccc2ccccc2n1)C(=O)N[C@@H](CC(=O)O)C(=O)COc1c(F)cccc1F", "total cell number": 15.6}, {"smiles": "CC(C)(Oc1ccc(C2CC2(Cl)Cl)cc1)C(=O)O", "note": "(stereo unspecified) [Ciprofibrate]", "total cell number": "0.261 ± 1.4"}, {"smiles": "COc1cccc(OC)c1-c1cc(C(=O)NC2(C(=O)O)C3CC4CC(C3)CC2C4)nn1-c1ccc(C(=O)N(C)CCCN(C)C)cc1C(C)C", "note": "(stereo unspecified)", "total cell number": -0.926}, {"smiles": "NC(=O)c1cccnc1", "note": "[Nicotinamide (Vitamin B3)]", "total cell number": 0.0268}, {"smiles": "Nc1nccs1", "note": "[Aminothiazole]", "total cell number": -0.832}, {"smiles": "Cn1c(=O)c2c(ncn2CC(O)CO)n(C)c1=O", "note": "(stereo unspecified) [Dyphylline]", "total cell number": 0.0268}, {"smiles": "CCCc1nc(C(C)(C)O)c(C(=O)OCc2oc(=O)oc2C)n1Cc1ccc(-c2ccccc2-c2nnn[nH]2)cc1", "note": "[Olmesartan Medoxomil]", "total cell number": -0.616}, {"smiles": "CCCCCCCCCCCCCCCC[N+](C)(C)C", "note": "[Cetrimonium Bromide (CTAB)]", "total cell number": -16}, {"smiles": "O=C(NCc1ccc(Oc2ccccc2)cc1)c1nc(-c2cc(Br)c(O)c(Br)c2)no1", "total cell number": 0.968}, {"smiles": "Cc1c(Cn2c(C)nc3c(C(=O)O)cc(N4CCOCC4)cc32)cccc1C(F)(F)F", "total cell number": 0.996}, {"smiles": "CNC1(C)C2CCC(C2)C1(C)C", "note": "(stereo unspecified) [Mecamylamine hydrochloride]", "total cell number": -1.4}, {"smiles": "CNC(=O)c1ccccc1Sc1ccc2c(/C=C/c3ccccn3)n[nH]c2c1", "note": "[Axitinib]", "total cell number": -15.7}, {"smiles": "CC(C)(NS(=O)(=O)c1ccc(Oc2ccc(F)cc2)cc1)C(=O)NO", "total cell number": -2.86}, {"smiles": "CC(CN1c2ccccc2Sc2ccccc21)N(C)C", "note": "(stereo unspecified) [Promethazine hydrochloride]", "total cell number": -5.88}, {"smiles": "CNC(=O)c1ccc(N2C(=S)N(c3cnc(C#N)c(C(F)(F)F)c3)C(=O)C23CCC3)cc1F", "total cell number": 0.421}, {"smiles": "O=C(c1ccc(OCCN2CCCCC2)cc1)c1c(-c2ccc(O)cc2)sc2cc(O)ccc12", "note": "[Raloxifene HCl]", "total cell number": 2.09}, {"smiles": "O=C(c1ccc(OCCN2CCCCC2)cc1)c1c(-c2ccc(O)cc2)sc2cc(O)ccc12", "note": "[Raloxifene hydrochloride]", "total cell number": 1.26}, {"smiles": "CN(C)c1nc(N)c(C(=O)NC(=N)N)nc1Cl", "note": "[5-(N,N-Dimethyl)amiloride hydrochloride]", "total cell number": -1.61}, {"smiles": "CCOC(=O)C1=C(C)NC(C)=C(C(=O)OC)C1c1cccc([N+](=O)[O-])c1", "note": "(stereo unspecified) [Nitrendipine]", "total cell number": "-0.88 ± 0.89"}, {"smiles": "Cc1nc2c(OCc3ccccc3)cccn2c1CC#N", "total cell number": -1.83}, {"smiles": "N[C@H](C(=O)O)[C@H](Cc1ccccc1)C(=O)O", "note": "[L-Beta-threo-benzyl-aspartate]", "total cell number": -0.505}, {"smiles": "COc1cc(N2CCC(N3CCN(C)CC3)CC2)ccc1Nc1ncc(Cl)c(Nc2ccccc2S(=O)(=O)C(C)C)n1", "total cell number": -27.1}, {"smiles": "CC1CCc2cc(F)cc3c(=O)c(C(=O)O)cn1c23", "note": "(stereo unspecified) [Flumequine]", "total cell number": -0.852}, {"smiles": "CCCCOc1ccc(OCCCN2CCOCC2)cc1", "note": "[Pramoxine HCl]", "total cell number": 4.05}, {"smiles": "C[C@@H](O)[C@H]1C(=O)N2C(C(=O)OCOC(=O)C(C)(C)C)=C(SC3CN(C4=NCCS4)C3)[C@H](C)[C@H]12", "note": "[Tebipenem Pivoxil]", "total cell number": -9.86}, {"smiles": "COc1ccc(C(C)=O)c(O)c1", "note": "[Paeonol]", "total cell number": -1.45}, {"smiles": "COc1ccc(-n2nc(C(N)=O)c3c2C(=O)N(c2ccc(N4CCCCC4=O)cc2)CC3)cc1", "note": "[Apixaban]", "total cell number": -1.4}, {"smiles": "Nc1cccc(-c2cc3c(Oc4cccc(O)c4)ncnc3[nH]2)c1", "total cell number": -14.2}, {"smiles": "CC(C)[C@H]1CC[C@H](C(=O)N[C@H](Cc2ccccc2)C(=O)O)CC1", "note": "[Nateglinide]", "total cell number": 0.101}, {"smiles": "COc1c(O)cc2c(c1O)[C@@H]1O[C@H](CO)[C@@H](O)[C@H](O)[C@H]1OC2=O", "note": "[Bergenin]", "total cell number": -0.456}, {"smiles": "CCCOC(=O)c1c(-c2ccccc2)nc(CC)c(C(=O)SCC)c1CCC", "total cell number": -2.19}, {"smiles": "CC(C)c1nc(CN(C)C(=O)N[C@H](C(=O)N[C@@H](Cc2ccccc2)C[C@H](O)[C@H](Cc2ccccc2)NC(=O)OCc2cncs2)C(C)C)cs1", "note": "[Ritonavir]", "total cell number": -6}, {"smiles": "COc1ccccc1OCCNCC(O)COc1cccc2[nH]c3ccccc3c12", "note": "(stereo unspecified) [Carvedilol]", "total cell number": "-7.9 ± 3.3"}, {"smiles": "Nc1ncnc2c1c(-c1cccc(OCc3ccccc3)c1)cn2C1CC(CN2CCCC2)C1", "note": "(stereo unspecified)", "total cell number": -25.8}, {"smiles": "O=C(Nc1cccc(Cl)c1)Nc1ncc(CCNc2ncnc3ccsc23)s1", "note": "[SNS-314 Mesylate]", "total cell number": -0.233}, {"smiles": "CCc1c(C(=O)NCCc2ccc(N3CCCCC3)cc2)[nH]c2ccc(Cl)cc12", "total cell number": 3.49}, {"smiles": "Nc1nc(N)nc(-c2cc(Cl)ccc2Cl)n1", "note": "[Irsogladine]", "total cell number": -2.08}, {"smiles": "CCN1CCCC1CNC(=O)c1cc(S(=O)(=O)CC)c(N)cc1OC", "note": "(stereo unspecified) [Amisulpride]", "total cell number": "-0.753 ± 1.4"}, {"smiles": "CCCS(=O)(=O)Nc1ccc(F)c(C(=O)c2c[nH]c3ncc(Cl)cc23)c1F", "total cell number": 0.199}, {"smiles": "CNC(=O)CN1CCC(Oc2cc3c(Nc4cccc(Cl)c4F)ncnc3cc2OC)CC1", "note": "[AZD8931 (Sapitinib)]", "total cell number": -10.1}, {"smiles": "Cc1c(OCC(F)(F)F)ccnc1C[S+]([O-])c1nc2ccccc2[nH]1", "note": "(stereo unspecified) [Lansoprazole]", "total cell number": "2.3 ± 2.4"}, {"smiles": "CC[C@@H]1C(=O)N(C)c2cnc(Nc3ccc(C(=O)NC4CCN(C)CC4)cc3OC)nc2N1C1CCCC1", "total cell number": -26.1}, {"smiles": "Cn1c(=O)c2c(ncn2C)n(C)c1=O", "note": "[Caffeine]", "total cell number": -1.42}, {"smiles": "CCCCCCCC/C=C\\CCCCCCCC(=O)O", "note": "[Oleic Acid]", "total cell number": -0.877}, {"smiles": "CO[C@H]1C[C@@H]2CC[C@@H](C)[C@@](O)(O2)C(=O)C(=O)N2CCCC[C@H]2C(=O)O[C@H]([C@H](C)C[C@@H]2CC[C@@H](OP(C)(C)=O)[C@H](OC)C2)CC(=O)[C@H](C)/C=C(\\C)[C@@H](O)[C@@H](OC)C(=O)[C@H](C)C[C@H](C)/C=C/C=C/C=C/1C", "note": "[Ridaforolimus (Deforolimus, MK-8669)]", "total cell number": -0.664}]}]}
